# In the supplement of paper PMC11417369:
# Some of the results follow.
# Tested on: PfSIP2 AP2 domain 1 (GST-tagged)
# Test: gcPBM binding intensity (ln(normalized median fluorescence intensity)); higher = stronger DNA binding
# How it was run: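 Each value is the highest Masliner-normalised natural-log median intensity across replicate spots of either orientation of a probe. The probes were primer-extended double-stranded 36-bp intergenic genomic sequences on an Agilent 4 × 180k array, alongside negative controls, exposed for 1 h to GST-tagged P. falciparum DNA-binding domains expressed in E. coli. Bound protein was picked up with Alexa488 anti-GST antibody and scanned at 488 nm.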
row,Sequence,gcPBM binding intensity (ln)
1,ATTATGAAATATCGTGCACACACGAATAATATAAGA [CACACA_site1294],9.15
2,TATTTGTTTAAATTCACACACGTATATATATTTATA [CACACA_site5651],7.17
3,TACGTTTTAAAACACACACACAAAAAAAAAAAAAAA [CACACA_site3876],7.01
4,AAAAGAGAAATGGGCACACACACACCCATTATATAT [CACACA_site1530],6.88
5,ATTTTTATATATATCTGTACTAAAAAAAAAAAAAAA [XGTACX_site5258],7.1
6,AGAAGTAAAAAAATAGCACACACACTAATACCAACA [CACACA_site8354],7.22
7,AAACAAAAAAGAAAAACAATGAGATAAAGAAGAGAA [CACACA_negctrl_site804],7.05
8,TTTAATTATTTATTTTGTACATATATTATATATATA [XGTACX_site5760],7.71
9,AAAAGAAAAATATTCACACATATAAATAATATATAA [CACACA_site4201],6.58
10,TTATATTAATATTATATTTAAAAATAAAATATAAAT [TGCATGCA_negctrl_site79],6.84
11,TATTTATATATTTGTTGTACGTATTTATATATTCTT [XGTACX_site3622],7.09
12,TTTAAAAAAAGCAGTACATGCAAAATAATAACAAGC [TGCATGCA_site392],7.58
13,TAAAAAAATATTACATGTACATAAAATATATATATA [XGTACX_site4633],8.52
14,CAATTATATAATTGAAGTACTAGGAAAGATATATAT [XGTACX_site5459],7.3
15,AATTAAATTCGGTACTGTACATTTCAAAAATATACG [XGTACX_site48],7.02
16,CTTAAATTTTACTGAAGTACAAAATCGGTTCAATGA [XGTACX_site3292],6.89
17,TATACATATTTTTTTTGTACATATATAATATATATA [XGTACX_site2399],7.43
18,GGGAAAAAAAAAAGCACACATACGTAAATATATAAC [CACACA_site226],7.03
19,ATGTGTTAAAAATGCACACAAAAAAATATACATATA [CACACA_site295],7.35

row,Sequence,gcPBM binding intensity (ln)
1,ACATGTGAACATTCAATGCACACGATGTAATTATAC [CACACA_site14],7.64
2,ATATTATATATATACACACACACATGCATGCACCTA [CACACA_site106],11.1
3,TTTTTTAAATATATGGTGCATAGAAAGATATTATAC [GTGCAC_site9984],10
4,TTTTTTTTTTTTTTATGTACACATCTAAAAAAAAGG [XGTACX_site2067],7.43
5,GCCCCCTAAAAAATTACACACGAAAAAAATGAATTT [CACACA_site9128],8.47
6,TAAGTATAAAAAAATAGTACAATTATGAAATATCGT [XGTACX_site2529],7.14
7,GGTCTAACAACATGCGCACACACATGAATATTCATA [CACACA_site1539],8.12
8,TTTAACAAGTTAAACACACATACATATATACATATA [CACACA_site2536],6.87
9,TATAAAAATATATATATATATATATATATAATATGT [TGCATGCA_negctrl_site85],7.59
10,TTAAAAAAAAAACACACACACATACCCATATATATA [CACACA_site5768],7.38
11,ATTTGTTCCTTGGGAGTTTACTTTTTTTTAATTTTA [CACACA_negctrl_site638],6.88
12,TTCTTTTTAATTAATACACACACACCCATATATATA [CACACA_site8719],7.57
13,AACAAAATTGAAGGAACACACATACATATTTATATA [CACACA_site6227],6.78
14,AAAAAATTAGATTATGCACACACACTAATAAATAAT [CACACA_site8604],8.7
15,TTTATTTAAGAAAAATGTACAGGTTCATTTCATAAT [XGTACX_site27],6.86
16,CATATAAATACATGCACACAAAAATATCAATACATT [CACACA_site2392],7.25
17,ATAAATACATATGTGTGTACACATTATATATATATA [XGTACX_site1486],9.06
18,GAAAAATTAAAACCTACACACACATTTAAAAAAAAA [CACACA_site9005],6.88
19,TATATATTACATACATGTACCCAAAAAAAAAAAAAA [XGTACX_site1168],7.02

row,Sequence,gcPBM binding intensity (ln)
1,ATATATATATAATCATCACACATGCAGCCCTGATGA [CACACA_site5500],8.79
2,GAATGAATACGTTTTACACACTTGAATCTAATTTCA [CACACA_site6593],6.89
3,ATTCTACTTTTATTTATTTATTTGTTTATATATATA [XGTACX_negctrl_site609],7.69
4,TTTTTTATTCATGTAACACACATTTAATTATGAATT [CACACA_site2706],6.97
5,GTGTAGATATTGAAATGTACTCTCCATATAAAATAA [XGTACX_site4713],7.07
6,AAAGAATTTGCATATACACACAAAAAAATATATACA [CACACA_site386],6.87
7,ATATATATATATATATGTACTTATTTATTTATATTA [XGTACX_site4646],9.67
8,TTACGATACTTTAGGTGTACACAAATATACATGAAT [XGTACX_site4322],7.54
9,TATAAATATAAATATACACACATATATATATATATA [CACACA_site1678],9.45
10,TTGCATTAATTTATGTGTACATATAAATTTTTATTT [XGTACX_site3060],7.41
11,CTTATAGGTCATTTCCTTGACCCCCTTTGTTGTACT [CACACA_negctrl_site551],7.24
12,ATCAGTCGGCAGGACAGTACACAGTAGCCAGAAAAT [XGTACX_site2550],6.84
13,TTATAAATAAAAAATACACACATATATTTATTTATA [CACACA_site6242],6.87
14,ATAATATATGAAAGTGGTACACAAAGGAAAATAAAA [XGTACX_site333],7.04
15,TGTAGTCTGGAGAAAAGTACACAGTATCCGGTAACT [XGTACX_site4934],6.85
16,AATAATAAATCAAACTGTACATATATTTTCAATCTA [XGTACX_site3344],7.01
17,TTTTTTTTTTTGTTCACACATATATATATATATATA [CACACA_site5376],9.22
18,TTCTTCTAATCCTTTTATCTCATTAAAAAAATATAA [CACACA_negctrl_site12],7.57
